Entries after “also recorded” stand apart in the source; their conditions may differ.
Legend:
Format in all cases: cell-based
[1] = target: T1, mutant (A53T) α-synuclein (Homo sapiens, UniProt P37840, A53T); assay: Immunoblot of total α-synuclein in lysates of transfected HEK293 cells; details: for Total α-synuclein: HEK293, Mutant (A53T), normalized to the wildtype alone control
T1 construct: expressed in transfected cells; host or cells: HEK293
Protocol: (§1) FIG. 3A: Wild type (WT) α-synuclein (Syn(WT): bars 1-3) or mutant α-synuclein (Syn(A53T): bars 4-6) was expressed alone or with a Flag epitope-tagged fusion protein comprising the J-domain DnaJB1 and a α-synuclein-binding domain (J-SynBP1: bars 2 and 5) or a control fusion protein construct comprising a mutated J-domain (containing a P33Q substitution) and a α-synuclein-binding peptide (J(MT)-SynBP1: bars 3 and 6) in HEK293 cells. Two days later, cells were homogenized in Tris buffer (10 mM Tris, pH7.4, 140 mM NaCl, 1 mM EDTA supplemented with protease inhibitor cocktail). Aggregation of mutant α-synuclein levels were quantified with sandwich ELISA, in which aggregated α-synuclein proteins were captured by coated-Syn-O4 antibody, followed by detection with HRP-conjugated anti-α-synuclein antibody (BioLegend: A15115A). FIG. 3B Lysates were prepared from HEK293 cells transiently transfected with wildtype Syn(WT) (lanes 1-3) or mutant Syn(A53T) (lane 4-6) alone or co-expressed with the fusion protein constructs. After brief sonication, the cell lysate was subjected to SDS-PAGE/immuno blotting with anti-α-synuclein antibody (Ab-2: top panel), Flag antibody (middle panel) or anti-Tubulin antibody (bottom panel).
Cells were transfected with either wildtype (lane 2) or mutant (lanes 3-8) α-synuclein, and also transfected with the JB1-SynBP1 fusion protein (lanes 4-8). Cells were also treated with either Bafilomycin A1, an inhibitor of late phase autophagy (10 nM and 100 nM in lanes 5 and 6, respectively), or MG132, a proteasome inhibitor (0.1 μM and 1 μM in lanes 7 and 8, respectively). Cell lysates were probed with anti-synuclein antibodies.
(§2) Expression vector plasmids encoding various protein constructs were transfected into HEK293 cells with Lipofectamine 3000 transfection reagent (Thermo Fisher Scientific). Cell lysates were analyzed for expressed proteins using immunoblot assays. Samples of culture media were centrifuged to remove debris prior to analysis. Cells were lysed in a lysis buffer (10 mM Tris-HCl, pH 8.0, 150 mM NaCl, 10 mM EDTA, 2% SDS) containing 2 mM PMSF and protease cocktail (Complete Protease Inhibitor Cocktail; Sigma). After brief sonication, the samples were analyzed for expressed proteins using immunoblot assays. For immunoblot analysis, samples were boiled in an SDS-sample buffer and run on polyacrylamide electrophoresis. Thereafter, the separated protein bands were transferred to a PVDF membrane.
Expressed proteins were detected using a chemiluminescent signal. Briefly, blots were reacted with a primary antibody capable of binding the particular epitope (e.g., anti-α-synuclein antibody). After rinsing away the unreacted primary antibody, a secondary, enzyme-linked antibody (e.g., HRP-linked anti-IgG antibody) was allowed to react with the primary antibody molecules bound to the blots. Following rinsing, a chemiluminescent reagent was added, and the resultant chemiluminescent signals in the blots were captured on X-ray film.
Expression vector plasmids encoding various protein constructs were transfected into HEK293 cells with Lipofectamine 3000 transfection reagent (Thermo Fisher Scientific). One day after transfection, culture medium was replaced with fresh medium containing bafilomycin al (BFA) or MG132, and cells were incubated for additional 48 hours. Cells were lysed in lysis buffer (20 mM Tris, pH 7.4, 150 mM NaCl, 1 mM EDTA, 0.1% NP-40) supplemented with protease inhibitor cocktail (Complete Protease Inhibitor Cocktail; Sigma) and 2 mM PMSF. After brief sonication, cell lysates were analyzed in ELISA or immunoblotting assay.

[2] = target: T2, mutant (A53T) α-synuclein phosphorylated at Ser129 (Homo sapiens, UniProt P37840, A53T); assay: Level of phosphorylated α-synuclein (Ser129) on co-expression of fusion protein constructs; details: Table 13, wildtype alone = 100%, mutant alone = 92.1%
T2 construct: expressed in transfected cells

[3] = target: T1, mutant (A53T) α-synuclein; assay: ELISA of α-synuclein secreted into culture media; details: cells expressing mutant (A53T) α-synuclein, bar 5
Text: (§3) Transfection of cells with wildtype (bar 2) or mutant (A53T; bar 4) α-synuclein alone results in secretion of the synucleins as detectable by ELISA. Co-expression with the fusion protein construct comprising either a normal (bar 3) or mutated J-domain (containing a P33Q substitution; bar 5) results in the elimination of detectable levels of secreted α-synuclein.
as §2
(§4) α-synuclein is known to be secreted. We therefore investigated whether the fusion protein constructs were effective in reducing the amount of secreted α-synuclein.

[4] = target: T3, wildtype α-synuclein (Homo sapiens, UniProt P37840); assay: ELISA of α-synuclein secreted into culture media; details: cells expressing wildtype α-synuclein, bar 3
T3 construct: expressed in transfected cells; host or cells: HEK293
Text: as §3, §2, §4

[5] = target: T3, wildtype α-synuclein; assay: Immunoblot of total α-synuclein in lysates of transfected HEK293 cells; details: wildtype Syn(WT), lanes 1-3
Protocol: as §1, with “FIG. 3B Lysates were prepared from HEK293 cells transiently transfected with wildtype Syn(WT) (lanes 1-3) or mutant Syn(A53T) (lane 4-6) alone or co-expressed with the fusion protein constructs. After brief sonication, the cell lysate was subjected to SDS-PAGE/immuno blotting with anti-α-synuclein antibody (Ab-2: top panel), Flag antibody (middle panel) or anti-Tubulin antibody (bottom panel).” left out
Expression vector plasmids encoding various protein constructs were transfected into HEK293 cells with Lipofectamine 3000 transfection reagent (Thermo Fisher Scientific). Cell lysates were analyzed for expressed proteins using immunoblot assays. […] After brief sonication, the samples were analyzed for expressed proteins using immunoblot assays. […]
Expressed proteins were detected using a chemiluminescent signal. […]

[6] = system: U87-MG glioma cells; assay: LDH activity in culture medium (LDH-Cytox Assay Kit), α-synuclein-mediated cytotoxicity; details: lentivirus infection, medium collected at 7-day after infection, listed as JB1-SynBP1
Protocol: U87MG cells were infected with lentivirus to express either wildtype (“SynWT”) or mutant (“SynA53T”) α-synuclein protein, either alone or with the JB1-SynBP1 construct. The culture medium was collected from U87-MG cells at 7-day after infection. Lactate dehydrogenase (LDH) activity in culture medium was measured by LDH-Cytox™ Assay Kit (BioLegend), and expressed as values relative to LDH levels in cells expressing SynWT alone.
Finally, experiments were conducted to determine whether expression of various fusion protein constructs are able to ameliorate cytotoxicity by expression of mutant (A53T) α-synuclein.

Total α-synuclein ([1]; inhibitor BFA 10 nM, 48 hours): 104.1%
Total α-synuclein ([1]; inhibitor BFA 100 nM, 48 hours): 123.9%
Total α-synuclein ([1]; inhibitor MG132 0.1 μM, 48 hours): 86.9%
Total α-synuclein ([1]; inhibitor MG132 1 μM, 48 hours): 60.0%
Total α-synuclein ([1]; no inhibitor): 99%
Total α-synuclein ([1]; no inhibitor, listed as JB1-SynBP1): 99.0%
overall level of α-synuclein (FIG. 3B, Western blot) ([1]; HEK293 cells, mutant Syn(A53T), lanes 4-6): relatively similar levels
Phosphorylated α-synuclein [2]: 51.3%
α-synuclein secreted into the culture media (FIG. 4) [3]: no detectable
α-synuclein secreted into the culture media (FIG. 4) [4]: no detectable
overall level of α-synuclein (FIG. 3B, Western blot) [5]: relatively similar levels
B1: Construct 1: J domain from human DnaJB1 fused to 4XGGGGS linker, in turn, fused on its C-terminus to SynBP1 (protein)
chain: MGKDYYQTLGLARGASDEEIKRAYRRQALRYHPDKNKEPGAEEKFKEIAEAYDVLSDPRKREIFDRYGEEGLKGSDIGGGGSGGGGSGGGGSGGGGSAAAKDGIVNGVKA
modifications: JB1-SynBP1
notes: J domain from human DnaJB1 fused to 4XGGGGS linker, in turn, fused on its C-terminus to SynBP1
cytotoxic effect of α-synuclein (LDH activity in culture medium, FIG. 7) [6]: strongly suppressed; also recorded: amelioration

Reference: patent US20230234997A1, “Compositions and Methods for the Treatment of Synucleinopathies” (SOLA BIOSCIENCES LLC, priority 2020, published 2023)
